# Test results published in PubChem BioAssay AID504832 (National Center for Advancing Translational Sciences (NCATS), 2011).
# Out of some 310,000 compounds screened, about 18,000 (5.8%) were called active. The shares of active, inactive and inconclusive entries below differ from those in the screen. The call rests on the fitted dose curve; in most records, active means well fitted inhibition curve with a large enough effect; inconclusive means small, poorly fitted or top-dose-only effect, or another doubt; inactive means no such curve, though single readings can be large or run the other way. No potency is given beside an inconclusive call; the fits are too rough.
# Assay: Primary qHTS for delayed death inhibitors of the malarial parasite plastid, 48 hour incubation
# Conditions: P. falciparum luciferase growth in erythrocytes; series mostly up to 28.7 µM; activity change, negative = inhibition: at the top concentration
# Summary of the method: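 Compounds are pin-transferred into medium, infected erythrocytes (2% hematocrit, 0.1% parasitemia final) are added, and plates sit one parasite generation at 37 C in 5% CO2. Detection reagent is then added and luminescence measured.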
# On the % scale 0 is the no-effect control and ±100 the full control effect; potency means the concentration at half of the fitted maximal effect; tags describe the fitted curve by direction and shape.
Structure (SMILES),Potency,"activity change, negative = inhibition"
COc1ccccc1NC(=O)c1ccccc1NS(=O)(=O)c1cccs1,"inconclusive [inhibitor, partial curve, poor fit]",–
CC(C)Oc1ccc(CNC(=O)CC(c2ccccc2)c2cc(Cl)ccc2O)cc1 (centres undefined),"inconclusive [inhibitor, single point]",–
CN(C)c1ccc(C2Nc3ccccc3C(=O)N2CCN2CCNC2=O)cc1 (centres undefined),"inconclusive [inhibitor, partial curve, poor fit]",–
CCCn1c(SC(C)C(=O)NCC2CCCO2)nc2sc(CC)cc2c1=O (centres undefined),"inconclusive [inhibitor, partial curve]",–
O=C(O)Cc1ccc(NC(=O)Nc2ccc3c(c2)OCO3)cc1,–,inactive: 41.2%
CCN1CCN(c2ccc(Nc3ccnc4ccccc34)cc2)CC1,active: 0.657 µM,–
Cc1cc(C)c(OCC(=O)Nc2ccc(S(=O)(=O)N3CCOCC3)cc2)c(C)c1,"inconclusive [inhibitor, single point]",–
CCCn1c(N)c(C(=O)CSc2nnc(C3CC3)n2Cc2ccccc2)c(=O)n(C)c1=O,"inconclusive [inhibitor, single point]",–
COCCCn1c(-c2ccsc2)nc2c1c(=O)[nH]c(=O)n2Cc1ccccc1,"inconclusive [inhibitor, partial curve]",–
O=C1OC2(CCCCC2)CC2=C1C1O[C@](c3ccsc3)(Cc3ccccc31)O2,"inconclusive [inhibitor, single point]",–
COc1ccccc1/C=C(/C(=O)OCC(=O)Nc1ccccc1C)c1ccccc1,–,inactive: -17.7%
CCOC(=O)N1CCN(C(=O)CN(C)S(=O)(=O)c2ccc3c(c2)c(=O)n(C)c(=O)n3C)CC1,–,inactive: -26.4%
CC(C)c1ccc(/C=N/NC(=O)c2cc(-c3cccc([N+](=O)[O-])c3)n[nH]2)cc1,"inconclusive [inhibitor, single point]",–
CCC(=O)NC(c1ccc(C)cc1)c1cc([N+](=O)[O-])c2cccnc2c1O (centres undefined),"inconclusive [inhibitor, single point]",–
O=C(COC(=O)c1cccc(Cl)c1)Nc1cc(Cl)ccc1Oc1ccccc1,–,inactive: 4.37%
Cc1ccc(C)c(NC(=O)CN(C)C(=O)CCN2C(=O)c3ccccc3C2=O)c1,–,inactive: 9.97%
CCCN(CCC)C(=O)c1c(C)[nH]c(C(=O)OCC)c1C,–,inactive: -6.51%
Cc1ccccc1NS(=O)(=O)c1cc2c3c(c1)CC(=O)N3CCC2,active: 13.1 µM,–
O=C1c2ccccc2NC(c2cccc([N+](=O)[O-])c2)N1O (centres undefined),"inconclusive [inhibitor, partial curve, poor fit]",–
CC(=O)c1cc(C(=O)N2CCCC(CCC(=O)N(C)CCc3ccccn3)C2)cs1 (centres undefined),–,inactive: -0.0118%
Cc1ccc(-c2cc(N)n[nH]2)cc1,"inconclusive [inhibitor, single point]",–
CCOc1cc(N2CCOCC2)c(OCC)cc1NC(=O)c1ccc(OCc2c(C)noc2C)c(OC)c1,"inconclusive [inhibitor, partial curve]",–
CCOC(=O)c1c(NC(=O)c2cccs2)sc(C)c1CC,"inconclusive [inhibitor, single point]",–

Structure (SMILES),Potency,"activity change, negative = inhibition"
Clc1cccc(Cl)c1/C=N/Nc1c(Cl)cncc1Cl,–,inactive: 0.0639%
CC1CC(C)CN(S(=O)(=O)c2ccc3c(c2)oc(=O)n3CC(=O)N(C)Cc2ccccc2)C1 (centres undefined),"inconclusive [inhibitor, partial curve, poor fit]",–
O=C(COC(=O)C1CC(=O)N(Cc2ccco2)C1)c1ccc(OC(=O)c2ccco2)cc1 (centres undefined),–,inactive: -4.96%
OCC[C@H]1C[C@@H](O)[C@H](O)[C@]2(OCCc3ccccc32)O1,"inconclusive [inhibitor, single point]",–
Cc1ccccc1N=C1NN=C(c2ccccc2F)CS1,"inconclusive [inhibitor, single point]",–
COc1ccccc1NC(=O)NC(N)=O,–,inactive: 21.1%
Cc1ccc(C=C2C(Cl)=C(Cl)C(Cl)=C2Cl)cc1,"inconclusive [inhibitor, partial curve, poor fit]",–
CCCS(=O)(=O)c1c(S(=O)(=O)CCC)c2c3ccccc3ccn2c1C(=O)OC,active: 11.7 µM,–
Cc1noc(C)c1COC(=O)c1cccc(S(=O)(=O)N2c3ccccc3CC2C)c1 (centres undefined),"inconclusive [inhibitor, partial curve, poor fit]",–
CC(NC(=O)Nc1ccc(F)cc1)c1ccc2c(c1)OCO2 (centres undefined),–,inactive: 0.0694%
CCN(CC)C(=O)CSc1ncnc2c1nnn2-c1ccc(F)cc1,–,inactive: 2.2%
Cc1nonc1OCC(C)(COc1nonc1C)NC(=O)c1ccc(Cl)cc1,active: 8.28 µM,–
CCOc1ccccc1Nc1ncnc2c1cnn2-c1ccccc1,"inconclusive [inhibitor, partial curve]",–
Cc1ccc(OCC(=O)N2N=C(c3cccnc3)CC2(O)C(F)(F)F)cc1C (centres undefined),"inconclusive [inhibitor, partial curve]",–
COc1ccc(N2CC(C(=O)OCC(=O)Nc3ccccc3C)CC2=O)cc1 (centres undefined),"inconclusive [inhibitor, single point]",–
COc1cc(-c2nnc(SCC3(c4ccc(Br)cc4)OCCO3)o2)cc(OC)c1OC,active: 10.4 µM,–
O=C(O)CCN1C(=O)C2C3CC(C2C1=O)C1C(c2ccccc2)c2sc(=O)n(-c4ccccc4)c2SC31 (centres undefined),"inconclusive [inhibitor, partial curve, poor fit]",–
COc1ccc(N2CCN(c3oc(COc4ccccc4)nc3C#N)CC2)cc1,active: 13.1 µM,–
Cc1cc(C)c(S(=O)(=O)N2CCN(C(=O)C3COc4ccccc4O3)CC2)c(C)c1 (centres undefined),"inconclusive [inhibitor, single point]",–
Clc1ccccc1/C=C/C=N/Nc1nc(N2CCOCC2)nc(N2CCOCC2)n1,"inconclusive [inhibitor, partial curve]",–
C/C=C(\C)c1nnc(NC(=O)C(C)C)s1,–,inactive: 34.6%
CCOCCCN(C(=O)Cn1nnc2ccccc21)C(C(=O)NCc1ccco1)c1ccncc1 (centres undefined),–,inactive: -5.73%
O=C(/C=C/c1ccc2c(c1)OCO2)c1ccc(F)cc1,–,inactive: 0.058%

Structure (SMILES),Potency,"activity change, negative = inhibition"
CCOC(=O)c1c(C)c(P(=S)(N2CCOCC2)N2CCOCC2)n(C)c1C,"inconclusive [inhibitor, full curve, poor fit]",–
Cc1ccc(N2C(=O)NC(=O)/C(=C/c3ccc(-c4ccc(C(=O)O)c(Cl)c4)o3)C2=O)cc1,–,inactive: 15.5%
Cn1c(=O)c2c(nc(NCCCO)n2CCc2ccccc2)n(C)c1=O,–,inactive: 3.55%
O=C(c1cc(NC(=O)C23CC4CC(CC(C4)C2)C3)cc(NC(=O)C23CC4CC(CC(C4)C2)C3)c1)N1CCCCC1,active: 1.85 µM,–
CSC1=NC(C)(C)C=C(/C=C/c2ccc(Cl)cc2Cl)N1,"inconclusive [inhibitor, partial curve, poor fit]",–
Brc1ccc(CN2CC[C@H]3C=CCc4cccc(c43)C2)cc1,active: 3.29 µM,–
Cc1nc([N+](=O)[O-])nn1C12CC3CC(CC(Cl)(C3)C1)C2,"inconclusive [inhibitor, full curve, poor fit]",–
Cc1nc2scc(C)n2c(=O)c1S(=O)(=O)N1CCN(c2cccc(C(F)(F)F)c2)CC1,"inconclusive [inhibitor, single point]",–
Cc1ccc(C)c(NC(=S)NC2CC3CCCC(C2)N3CC(C)C)c1 (centres undefined),"inconclusive [inhibitor, single point]",–
Cc1ccc2c(c1)N(CC(=O)NCC(C)c1ccccc1)C(=O)c1cccnc1O2 (centres undefined),"inconclusive [inhibitor, single point]",–
CCN(CC)c1ccc(S(=O)(=O)N2CCOCC2)cc1NC(=O)CSc1nncs1,"inconclusive [inhibitor, single point]",–
O=C1Nc2ccccc2S/C1=C\C(=O)N1CCCC1,–,inactive: 373%
OCCCNc1cc(-c2ccccc2)nc2cc(-c3ccc(F)cc3)nn12,"inconclusive [inhibitor, single point]",–
O=C(C[C@@H]1NS(=O)(=O)OC2CCCCC21)c1ccccc1 (some centres undefined),–,inactive: 18.3%
CCCCNC(=O)c1ccccc1NC(=O)c1ccccc1N(C)S(C)(=O)=O,"inconclusive [inhibitor, single point]",–
Cc1sc(N2CCN(S(=O)(=O)c3ccc4c(c3)NC(=O)CO4)CC2)nc1-c1ccccc1,"inconclusive [inhibitor, partial curve]",–
CCOC(=O)c1c(NC(=O)CSc2nnc(Cc3ccccc3)o2)sc(C)c1C,"inconclusive [inhibitor, single point]",–
Cc1ccc(C)c(N2C(=O)CC(N3CCN(Cc4ccc5c(c4)OCO5)CC3)C2=O)c1 (centres undefined),"inconclusive [inhibitor, single point]",–
COc1ccccc1NC(=O)C1CCCN1S(=O)(=O)c1ccc(Cl)cc1 (centres undefined),"inconclusive [inhibitor, partial curve, poor fit]",–
CCOC(=O)N/N=C\c1ccc(C)s1,–,inactive: 59.8%
O=C(Nc1nc(-c2cccnc2)cs1)c1ccccc1[N+](=O)[O-],"inconclusive [inhibitor, full curve, poor fit]",–
COc1cc(OC)c2c(O)c3c(c(-c4c5c(c(O)c6c(OC)cc(OC)cc46)CO[C@@H](C)[C@H]5O)c2c1)[C@H](O)[C@H](C)OC3,–,inactive: -0.329%
CCn1c(Cc2ccccc2)nnc1SCc1cccc(C(=O)O)c1,–,inactive: 28.3%
